Where two headings read alike, the source gives them in different places.

For experiment [1], the system named is anti-molinate monoclonal antibody (MoAb 14D7). As to the kind of experiment: Cross-reactivity of the pA-Nanopeptamer noncompetitive ELISA with related thiocarbamate pesticides. To be noted: 100 x SC50(analyte)/SC50(cross-reacting compound), molar; mean of two independent experiments. In general terms: In an ELISA, binding on a coated surface is turned into a signal by an enzyme label.

Experiment [2] shares this test system. As to the kind of experiment: Cross-reactivity of the PHAIA (phage anti-immunocomplex assay) with related thiocarbamate pesticides.
Setting [3] is: 100 x SC50(analyte)/SC50(cross-reacting compound), mean of two independent experiments.

Take `CCSC(=O)N(CC(C)C)CC(C)C` [Butylate]: in experiment [1], the “Cross reactivity, pA-Nanopeptamer assay” value is on record as 1%. The “Cross reactivity, PHAIA assay” value in experiment [2] (setting [3]) was 0%.
Turning to `CCCN(CCC)C(=O)SCC` [EPTC], in experiment [1], the “Cross reactivity, pA-Nanopeptamer assay” value came to 2%. The “Cross reactivity, PHAIA assay” value in experiment [2] (setting [3]) is given as 5%.
In the case of `CCSC(=O)N1CCCCCC1` [Molinate], the “Cross reactivity, pA-Nanopeptamer assay” value in experiment [1] stood at 100%. Besides, the “Cross reactivity, PHAIA assay” value in experiment [2] (setting [3]) is on record as 100%.
As for `CCCCN(CC)C(=O)SCCC` [Pebulate], the “Cross reactivity, PHAIA assay” value in experiment [2] amounted to 7%.
With `CCCSC(=O)N(CCC)CCC` [Vernolate], the “Cross reactivity, pA-Nanopeptamer assay” value in experiment [1] stood at 5%. Also, the “Cross reactivity, PHAIA assay” value in experiment [2] (setting [3]) was determined as 4%.
`CCN(CC)C(=O)SCc1ccc(Cl)cc1` [thiobencarb]: the “Cross reactivity, PHAIA assay” value in experiment [2] is reported as 0%.
Turning to Cycloate, in experiment [1], the “Cross reactivity, pA-Nanopeptamer assay” value is reported as 10%. For the same compound, in experiment [2] (setting [3]), the “Cross reactivity, PHAIA assay” value was 9%.

Values taken from patent US10101324B2, “Non-competitive immunoassays to detect small molecules using nanopeptamers” (priority 2012, dated 2018).
